These are yes or no findings as the source states them, for the method shown. Binding seen in cells or lysates may run through a third protein. Some binding calls cover weakened binding; strength is not graded here.

In experiment [1] the target is Flag-ORF4b (MERS-CoV ORF4b protein, Flag-tagged) (MERS-CoV) (UniProt K9N643). Nature of the experiment: co-IP.
For experiment [2], the target named is Flag-UBR5 (human) (UniProt O95071). Kind of experiment: co-IP.

For “UBR5 T1 (aa 1 to 1264), MYC-tagged (from UniProt O95071 1-1264) (domain or fragment)”, the binding entry in experiment [1] was “no binding”.

Turning to “HA-ORF4b (MERS-CoV ORF4b protein, HA-tagged) (from UniProt K9N643 1-246)”, in experiment [2], the binding result was “binds”.

With “UBR5 (ubiquitin protein ligase E3 component N-recognin 5), endogenous (from UniProt O95071 1-2799) (enzyme)”, the binding entry in experiment [1] is listed as “binds”.

Consider “UBR5 T3 (aa 2464 to 2799), containing the HECT domain, MYC-tagged (from UniProt O95071 2464-2799) (domain or fragment)”, for which the binding entry in experiment [1] is listed as “binds”.

Take “HUWE1 (from UniProt Q7Z6Z7 1-4374) (enzyme)”: in experiment [1], the binding entry is recorded as “no binding”.

In the case of “UBR5 T2 (aa 1265 to 2463), MYC-tagged (from UniProt O95071 1265-2463) (domain or fragment)”, the binding entry in experiment [1] is listed as “no binding”.

The record behind these values is article PMC9472757.
